Data: PubChem BioAssay AID488969 (Vanderbilt High Throughput Screening Facility, 2010)
Over roughly 110,000 compounds, “z-score” has its median near -0.1; the highest 2% begin near 2. This is one part of the list.

What follows are compounds tested against Metabotropic glutamate receptor 8 (Rattus norvegicus) (UniProt P70579) (assay: mGluR8 Gi/Go-coupled signaling modulation – cell-based, rat, thallium flux, HTS, primary screen (AID 488969)). Conditions: HEK293 rat mGluR8, GIRK (G protein-gated inwardly rectifying potassium channel) thallium flux, FluoZin2; at 10 µM; stronger effect = higher value; submaximal glutamate (EC20) added with thallium.
Sequence of UniProt P70579 (P70579 whole entry, looked up): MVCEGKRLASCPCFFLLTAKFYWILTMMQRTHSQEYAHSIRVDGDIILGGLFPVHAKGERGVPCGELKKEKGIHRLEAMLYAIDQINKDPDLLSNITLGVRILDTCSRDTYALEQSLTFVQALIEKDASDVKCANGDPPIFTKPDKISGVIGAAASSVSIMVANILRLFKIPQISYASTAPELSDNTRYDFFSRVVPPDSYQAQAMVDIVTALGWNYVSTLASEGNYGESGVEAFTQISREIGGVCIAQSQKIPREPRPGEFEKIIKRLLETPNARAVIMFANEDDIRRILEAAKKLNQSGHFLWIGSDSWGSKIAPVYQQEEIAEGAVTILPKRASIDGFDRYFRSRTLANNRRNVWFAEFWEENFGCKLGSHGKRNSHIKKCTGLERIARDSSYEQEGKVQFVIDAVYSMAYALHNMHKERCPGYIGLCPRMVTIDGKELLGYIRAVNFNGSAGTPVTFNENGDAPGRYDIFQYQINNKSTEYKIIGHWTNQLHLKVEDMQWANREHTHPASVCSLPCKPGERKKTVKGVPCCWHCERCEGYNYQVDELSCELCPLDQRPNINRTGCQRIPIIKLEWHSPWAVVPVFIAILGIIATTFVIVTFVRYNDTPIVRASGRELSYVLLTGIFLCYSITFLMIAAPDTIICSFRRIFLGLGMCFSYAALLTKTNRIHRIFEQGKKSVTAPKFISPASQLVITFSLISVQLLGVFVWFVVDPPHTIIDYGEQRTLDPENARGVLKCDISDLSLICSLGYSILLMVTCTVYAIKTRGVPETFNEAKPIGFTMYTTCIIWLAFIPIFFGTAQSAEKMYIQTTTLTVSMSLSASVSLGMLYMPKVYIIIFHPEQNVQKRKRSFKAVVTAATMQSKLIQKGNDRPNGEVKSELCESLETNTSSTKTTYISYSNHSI

| SMILES | z-score |
| --- | --- |
| COc1ccccc1NC(=O)COC(=O)[C@@H]1CCCN1C(=O)c1cccs1 | 0.249 |
| O=C1C2C3c4ccccc4C(c4ccccc43)C2C(=O)N1Cc1cccnc1 (configuration not stated) | -0.974 |
| O=C1NC(c2ccccc2)=NC1(NS(=O)(=O)c1ccccc1)C(F)(F)F (configuration not stated) | -0.0967 |
| O=S(=O)(NCCc1ccccc1)c1ccccc1 | -0.0483 |
| FC(F)(F)c1cc(-c2ccc(Cl)cc2)nc(NCc2cccnc2)n1 | 0.00121 |
| Cc1ccc2c(Cl)cc(Cl)c(OCC(=O)NC(=O)NCc3ccco3)c2n1 | -0.127 |
| Cc1c(Cl)cccc1NC(=O)COc1ccc(S(=O)(=O)N2CCOCC2)cc1 | -0.297 |
| COCCn1nnnc1C(c1cccs1)N1CCN(c2cc(C)ccc2C)CC1 (configuration not stated) | -0.182 |
| CCCC(=O)Nc1ccc2c(c1)nc(CN1CCN(C(C)=O)CC1)n2C | -0.287 |
| COc1cc2ccccc2cc1C(=O)O | -0.553 |
| O=C(NCCN1CCC(Cc2ccccc2)CC1)C1CCCN(S(=O)(=O)c2cnc[nH]2)C1 (configuration not stated) | 0.174 |
| O=C(CSc1nnc(NC(=O)C2CC2)s1)Nc1ccc(F)cc1 | 1.56 |
| COc1cc(NC(=O)Nc2cccc(C(C)=O)c2)cc(OC)c1OC | -0.534 |
| CCn1ncc(/C=N/N=C2\CCC3C4CCc5cc(O)ccc5C4CCC23C)c1C (configuration not stated) | -0.125 |
| c1cc2c(cc1C1CCCCC1)c1c3n2CCN=C3CCC1 | 0.729 |
| Cc1cc(C)n(CC(=O)N/N=C/c2cccc([N+](=O)[O-])c2)n1 | 1.04 |
| O=C1CCC(=O)N1CCOP1(=O)COc2ccccc2OC1 | 1.13 |
| O=C(O)CCCC(=O)N1CCN(c2cccc(Cl)c2)CC1 | -0.652 |
| Cc1cc(NC(=O)COC(=O)c2ccc(S(=O)(=O)N3CCCc4ccccc43)cc2)no1 | -0.137 |
| C/C(N)=C(/C#N)C(=O)COC(=O)c1ccncc1 | -0.271 |
| Cc1nnc(NC(=O)CCCN2C(=O)c3ccccc3C2=O)s1 | -0.000922 |
| CCOC(=O)c1c(NC(=O)Cc2cccs2)sc(C(=O)NC2CCCC2)c1C | -0.101 |
| Cc1nc2cc(S(=O)(=O)N3CCC(C(=O)O)CC3)ccc2n1C1CCCC1 | 0.236 |

| SMILES | z-score |
| --- | --- |
| COC(=O)c1c(NC(=O)c2cnccn2)sc2c1CCC2 | 0.367 |
| COc1ccc(S(=O)(=O)N2CCCC(C(=O)Nc3cccnc3)C2)cc1Cl (configuration not stated) | 0.085 |
| Cc1ccc(S(=O)(=O)NC(C)(C)CSc2nnc(Nc3ccccc3)s2)cc1 | 0.099 |
| CC1=Nn2c(nnc2-c2ccccc2Cl)SC1 | 0.265 |
| Cc1ccc(-c2noc(CCC(=O)NCCCN3CCN(c4ccc(F)cc4)CC3)n2)cc1 | 1.06 |
| O=C(NC12CC3CC(CC(C3)C1)C2)C1CC(=O)N(c2ccc(Br)cc2)C1 (configuration not stated) | -0.174 |
| C=CCn1c(N)c(C(=O)OCC)sc1=S | -0.398 |
| CCOC(=O)N1CCC(N2CC34C=CC(O3)C(C(=O)Nc3ccc(C)cc3)C4C2=O)CC1 (configuration not stated) | 1.02 |
| CCNc1nc(NC(C)(C)C)nc(N2CCCC2)n1 | -0.285 |
| Cn1c(CCCNC(=O)c2cccs2)nc2ccccc21 | -0.219 |
| N#CC1=C(SCc2ccccc2)NC(=O)CC1c1cccc(O)c1 (configuration not stated) | 0.304 |
| O=C(NCc1cccnc1)NC1(C(F)(F)F)Oc2ccc(Cl)cc2O1 (configuration not stated) | -0.363 |
| CCCCN=C1NC(=O)C(CC(=O)NCCc2ccc(OC)cc2)S1 (configuration not stated) | -0.557 |
| O=C(N/N=C\c1cc(Cl)ccc1O)c1ccc(S(=O)(=O)N2CCCCC2)cc1 | -0.759 |
| COc1ccccc1-c1c(C)nn2c(N3CCN(c4ccccc4OC)CC3)cc(C)nc12 | -0.615 |
| COc1cc(C(=O)OCc2cc3ccccc3[nH]c2=O)cc(OC)c1OC | 0.0343 |
| CCOc1cc(NC(=O)c2ccco2)c(OCC)cc1NC(=O)COc1ccccc1 | -0.123 |
| CC(C)(C)c1cc(NC(=O)c2cccnc2)no1 | 0.249 |
| CCC(=O)N1CCN(c2ccc(Cl)cc2NC(=O)Cc2ccc(Cl)cc2)CC1 | -1.56 |
| CC1CCc2nc(NC(=O)C3CCCO3)sc2C1 (configuration not stated) | -0.102 |
| c1cncc(-c2nc3c(ccc4ccccc43)[nH]2)c1 | -0.688 |
| Cc1cc(CNC(=O)Nc2ccc3c(c2)OCO3)nn1C | -0.218 |
| N#CC(c1ccccc1F)(c1ncc(C(F)(F)F)cc1Cl)N1CCOCC1 (configuration not stated) | -0.0239 |

| SMILES | z-score |
| --- | --- |
| O=C(CSCc1nc2ccccc2[nH]1)Nc1ccc2ccccc2c1 | -0.0941 |
| Nc1ccccc1OCCOCCOCCOc1ccccc1N | 0.104 |
| CC(=O)Nc1cc(C(=O)N2CCCC2)ccc1Sc1ccc(Cl)cc1 | -0.0685 |
| Oc1ccccc1C1N=C(c2ccccc2)NC(c2ccccc2)=N1 | 0.132 |
| CC(C)CC(=O)NC(=S)Nc1ccccn1 | -0.211 |
| COc1ccc(-n2c(C)cc(C(=O)COc3ccc(-n4cnnn4)cc3)c2C)cc1 | -0.144 |
| c1ccc2c(-c3nn4nnnc4c4ccccc34)cccc2c1 | -1.88 |
| CC(=O)CC1OC(=O)C(Br)=C1NCc1ccccc1 (configuration not stated) | -0.0715 |
| Cc1cccnc1Nc1nc(-c2ccc(O)cc2)cs1 | -1.91 |
| O=C(Nc1ccc(N2CCOCC2)nc1)c1ccc(F)cc1 | 0.0144 |
| CCCc1ncc(C(O)(c2ccccc2)c2ccc(C)cc2)n1C (configuration not stated) | -0.703 |
| Cc1nc2c(C(=O)NCc3ccc4c(c3)OCO4)cnn2c(C)c1Cc1ccc(F)cc1Cl | -0.281 |
| Cc1cc(C)n2nc(SCC(=O)Nc3ccc(F)cc3)nc2n1 | 0.0732 |
| COc1ccc(Cl)cc1NC(=O)CSc1nnc(COc2ccccc2)n1C | 0.115 |
| O=C(NCCN1CCOCC1)c1cc2c(=O)n3ccccc3nc2n1Cc1ccccc1 | -0.597 |
| COC(=O)c1cccc(NC(=O)CSc2nc(=O)cc(N)n2-c2ccccc2)c1 | -0.849 |
| O=C(Cn1cnc2ccc(Br)cc2c1=O)c1cccs1 | -0.0739 |
| CC(C)C(=O)Nc1cc(S(=O)(=O)Nc2cccc(Cl)c2)ccc1Cl | -0.319 |
| O=C(NCCCN1CCOCC1)c1cc(-c2ccc(Cl)cc2)on1 | -0.935 |
| O=S1(=O)NC2CCCCCN2c2ccc(F)cc21 (configuration not stated) | 1.64 |
| CC(C)NC(=O)CSc1nc2ccccc2n1-c1ccccc1 | -0.342 |
| O=C(NC1CCCCC1)C1CCCN1S(=O)(=O)c1cccc2nsnc12 (configuration not stated) | 0.136 |
| Cc1nnc(N(C)C(=O)c2cccnc2)s1 | -0.301 |

| SMILES | z-score |
| --- | --- |
| CCc1nc2c(sc3nc4c(cc32)COC(C)(C)C4)c(=O)n1Cc1ccco1 | 0.257 |
| CC1(C)Cn2c(nnc2-c2cccc(O)c2)S1 | -0.0205 |
| O=C(/C=C/c1ccc(F)cc1)NCc1cccs1 | -0.384 |
| CC[n+]1c(/C=C2\C=C(C)CC(C)(C)C2)sc2ccccc21 | 0.585 |
| O=C(Nc1cc(C(=O)N2CCOCC2)cc(C(=O)N2CCOCC2)c1)c1cc(F)c(F)cc1Cl | 0.199 |
| COc1ccc(-c2csc(N3CCN(C(=O)c4ccco4)CC3)n2)cc1 | -0.0853 |
| Nc1nc(NCc2ccco2)nc(N2CCCCCC2)c1[N+](=O)[O-] | -0.723 |
| CC1=Nc2cccc3cccc(c23)N1 | 0.207 |
| Cc1ccc(S(=O)(=O)Cc2cccc(C(=O)N3CCOCC3)c2)cc1 | 0.116 |
| Cc1cc(CC(C)C)n(-c2nc3ccccc3c(=O)n2OCc2ccccc2)n1 | 0.802 |
| O=C(Cc1cccs1)Nc1ccccn1 | 0.281 |
| O=C(N[C@@H](Cc1ccccc1)C(=O)NC1CCCCC1)c1ccco1 | 0.0119 |
| Cc1ccc(C(=O)N/C(=C\c2ccc([N+](=O)[O-])cc2)C(=O)NCCc2ccccc2)cc1 | -0.0772 |
| O=C(O)c1nn(-c2ccc(Cl)cc2)ccc1=O | 0.195 |
| CCOCCCNS(=O)(=O)Cc1ccccc1 | 0.197 |
| O=C(CN1CCN(c2ccccc2)CC1)Nc1ccc2c(c1)CCC2 | 0.173 |
| Cc1ccc2[nH]cc(CCNC(=O)c3cccnc3)c2c1 | -0.0656 |
| CCOC(=O)/C(=N/Nc1ccccc1)c1csc(Nc2ccccc2)n1 | -0.124 |
| CCCCOc1ccc(/C=C2/Sc3ccccc3C2=O)cc1 | 0.0561 |
| Cc1ccc(C(=O)c2c[nH]c(C(=O)NCc3cccnc3)c2)cc1 | -0.257 |
| COc1ccc(-c2c3c(=O)n(C)c(=O)n(C)c3cn2NC(C)=O)cc1 | 0.258 |
| COc1c(S(=O)(=O)N2CCCCC2)ccc2c(S(=O)(=O)N3CCCCC3)cccc12 | -0.152 |
| COC(=O)c1sc2ccccc2c1NC(=O)c1ccc(S(=O)(=O)N2CCCC(C)C2)cc1 (configuration not stated) | -0.17 |

| SMILES | z-score |
| --- | --- |
| CCOc1ccc2[nH]c3c(N4CCN(c5ccccn5)CC4)ncnc3c2c1 | -1.41 |
| O=C(CSc1n[nH]c(-c2cccs2)n1)N1CCN(S(=O)(=O)c2ccc3ccccc3c2)CC1 | -0.0541 |
| COc1ccc(NC(=O)CSc2nnc(C(C)C)n2N)cc1 | -0.0537 |
| CC(=O)c1ccc(OCC(O)CN2C(C)(C)CC(O)CC2(C)C)cc1 (configuration not stated) | -0.153 |
| CCCc1cc(C(=O)N2CCN(S(=O)(=O)c3ccc(OC)c(OC)c3)CC2)cs1 | -0.181 |
| c1ccc(-c2nnc(SCc3nc4ccccc4[nH]3)n2Cc2ccco2)nc1 | -0.0863 |
| CCN(CC)C(=O)c1cc2c(=O)n3ccccc3nc2s1 | -0.312 |
| COc1ccc(OC)c(S(=O)(=O)Nc2cc(Cl)cc(Cl)c2)c1 | 0.365 |
| COc1ccc(Oc2ccc3c(C(F)(F)F)cc(C(F)(F)F)nc3n2)cc1 | -0.0388 |
| COc1ccc(-c2nnc(SCC(=O)Nc3ccc(C)cc3)n2C)cc1 | -0.161 |
| COc1ccccc1N(CC(=O)NC(C)(C)C)C(=O)C1CSC(=O)C1 (configuration not stated) | 0.827 |
| COc1cc(/C=N/NC(=O)c2ccoc2C)ccc1O | -0.489 |
| COc1cccc(-c2csc3nc[nH]c(=O)c23)c1 | 0.947 |
| CCOC(=O)N1CCN(C(=O)C(NC(=O)c2ccc(CC)cc2)C(C)C)CC1 (configuration not stated) | -0.104 |
| CSc1nc2c(c(=O)[nH]1)C(c1ccncc1)C(C(=O)OC(C)C)=C(C)N2 (configuration not stated) | 0.292 |
| COc1ccc(NC2=Nc3cccc4cccc2c34)cc1 | -0.54 |
| CC(C(=O)NC1CCCC1)N(C(=O)c1ccc(-c2ccccc2)[nH]1)c1ccccc1F (configuration not stated) | 0.534 |
| CCCCn1nc2cc(C(=O)N(CC)c3ccc(OC)cc3)ccc2c1OCC | -0.624 |
| CCCCn1nnc(NC(=O)CCC)n1 | 0.782 |
| COc1cccc(Oc2nc3ncn(Cc4ccccc4)c3c(=O)n2C)c1 | -0.674 |
